The inconclusive results got no clear call from the source; some entries with a clear call stand among them for comparison. For some assays here: Potencies of inconclusive entries are doubtful fits and often do not repeat. Activity calls are given as the source filed them. Unless noted, calls come from the whole dose curve; as a rule, active = well fitted curve in the direction sought with a large enough effect; inconclusive = small, poorly fitted or top-dose-only effect, or another doubt; inactive = no such curve, though single readings can be large; an effect the other way counts as inactive or inconclusive.
Assays:
[1] = biological target: Muscarinic acetylcholine receptor M1 (Rattus norvegicus) (UniProt P08482); assay: qHTS Assay for Antagonists of Acetylcholine Muscarinic M1 Receptor: Measurement of IP-One Response (AID 944); conditions: CHO-M1 cells, IP-One HTRF, antagonist mode; series mostly up to 46.1 µM; note: nearly all actives have a fitted effect of over 75% in size
UniProt P08482, sequence (P08482 whole entry, looked up): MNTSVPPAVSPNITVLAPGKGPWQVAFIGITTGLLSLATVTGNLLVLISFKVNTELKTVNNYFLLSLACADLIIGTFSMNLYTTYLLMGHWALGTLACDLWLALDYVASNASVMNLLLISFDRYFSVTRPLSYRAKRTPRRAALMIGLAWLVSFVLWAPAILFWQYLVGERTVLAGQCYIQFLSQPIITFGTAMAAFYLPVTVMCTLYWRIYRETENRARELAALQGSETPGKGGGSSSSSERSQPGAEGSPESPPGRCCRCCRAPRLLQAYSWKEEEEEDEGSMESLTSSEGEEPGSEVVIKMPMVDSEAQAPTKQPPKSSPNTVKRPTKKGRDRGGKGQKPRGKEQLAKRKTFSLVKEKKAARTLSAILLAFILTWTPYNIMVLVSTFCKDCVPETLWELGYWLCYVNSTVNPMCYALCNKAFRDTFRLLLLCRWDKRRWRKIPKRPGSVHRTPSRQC

[2] = Cytometric Cell-Based qHTS for Inhibitors of the mTORC1 Signaling Pathway in MEF (Tsc2-/-, p53-/-) Cells (AID 2660); conditions: mTORC1 pathway cytometry; series mostly up to 38.3 µM; note: potency is the fitted concentration of half-maximal effect
Summary of the method: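 Readout: Alexa-488 phospho-rpS6 (Ser235/236) intensity divided by PI intensity, thresholded against 7.5 nM rapamycin wells and reported as % positive cells. PI cell count served as the viability measure. Compound exposure was 24 hrs at 37 degree Celsius.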

[3] = Nrf2 qHTS screen for inhibitors: Validation (AID 493153; active = well fitted inhibition curve with a large enough effect in the main read-out, with a control signal flat, not every such curve was filed as active; inconclusive = small, poorly fitted or top-dose-only effect, or effect the other way, or a change in a side signal; inactive = no such curve, though single readings can be large or run the other way; note: potency is the fitted concentration of half-maximal effect; for activity change, negative = inhibition: % of control where 0% means no effect); conditions: A549 ARE-Fluc reporter, luciferase luminescence, 18-24 h; series mostly up to 46.1 µM
Summary of the method: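 Concentration-response test in A549 ARE_Fluc reporter cells (5% FBS OPTI-MEM), compound exposure 18-24 h at 37°C, 5% CO2. Cell viability measured first by CellTiter-Fluor fluorescence; ARE-driven luciferase luminescence then measured as Nrf2 activity.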

[4] = Validation screen for small molecules that induce DNA re-replication in SW480 colon adenocarcinoma cells (AID 504364); conditions: DNA re-replication phenotype (high-content imaging); series mostly up to 46.1 µM; note: 0% is about no effect
Summary of the method: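 Read-out: total Hoechst intensity of nuclei by fluorescence scanning imager; hits raise the fraction of nuclei with elevated DNA content. Cells received compound for 48 hr at 37 C before a 40 min stain.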

[5] = NFAT Signaling Pathway (AID 444; active = well fitted curve in either direction with a large enough effect, not every such curve was filed as active; inconclusive = small, poorly fitted or top-dose-only effect, or another doubt;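 note: carbachol stimulus at about its EC50 of 1 µM final; % is set by controls: 0 for no effect and ±100 for the full control effect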); conditions: Jurkat NFAT-bla M1, carbachol, beta-lactamase ratio, 5 h; at 7.69 µM (top of the series) unless noted
Summary of the method: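 Jurkat cells carrying an NFAT-driven β-lactamase reporter and co-transfected muscarinic M1 receptor were treated with compound plus carbachol (1 uM final, an EC50 level) for 5 h at 37 °C. CCF4 loading followed for 1 h at RT; 460/530 nm ratio gave %activity.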

[6] = biological target: 3',5'-cyclic-AMP phosphodiesterase 4B (Homo sapiens) (UniProt Q07343); assay: qHTS Assay for Inhibitors of PDE-IV (AID 607; active = well fitted activation curve with a large enough effect in the main read-out, with a control signal flat, not every such curve was filed as active; inconclusive = small, poorly fitted or top-dose-only effect, or effect the other way, or a change in a side signal; note: potency is the fitted concentration of half-maximal effect); conditions: HEK293 ACTOne CNG channel cells, membrane potential fluorescence; activation (PDE inhibition): at 22.9 µM (top of the series)
UniProt Q07343, sequence (Q07343 whole entry, looked up): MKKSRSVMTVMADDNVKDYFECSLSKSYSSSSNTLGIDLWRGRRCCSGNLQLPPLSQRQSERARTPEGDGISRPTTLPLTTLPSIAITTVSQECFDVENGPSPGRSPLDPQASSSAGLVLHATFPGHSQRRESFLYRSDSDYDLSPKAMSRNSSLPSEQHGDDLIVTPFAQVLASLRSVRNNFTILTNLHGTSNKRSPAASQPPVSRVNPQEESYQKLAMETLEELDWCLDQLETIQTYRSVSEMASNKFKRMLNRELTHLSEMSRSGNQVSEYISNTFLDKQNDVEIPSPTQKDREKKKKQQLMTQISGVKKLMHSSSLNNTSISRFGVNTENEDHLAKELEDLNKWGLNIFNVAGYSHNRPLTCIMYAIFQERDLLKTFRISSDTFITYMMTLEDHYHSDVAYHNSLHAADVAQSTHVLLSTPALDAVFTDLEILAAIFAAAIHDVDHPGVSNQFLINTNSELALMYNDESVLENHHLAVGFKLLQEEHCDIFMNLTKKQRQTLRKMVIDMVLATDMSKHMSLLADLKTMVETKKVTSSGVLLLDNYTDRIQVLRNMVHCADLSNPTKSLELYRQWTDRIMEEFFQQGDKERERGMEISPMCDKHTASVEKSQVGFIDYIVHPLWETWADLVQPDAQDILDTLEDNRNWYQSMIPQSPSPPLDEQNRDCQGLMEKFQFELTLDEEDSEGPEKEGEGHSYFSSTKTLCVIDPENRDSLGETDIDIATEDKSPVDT
Summary of the method: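 ACTOne HEK293 cells carry a modified cAMP-gated CNG channel and express endogenous PDE4; plated 1000 cells/well, compounds up to 22.9 uM final. Membrane-potential dye fluorescence (ex 535/em 590) was read; parental cells received 10 uM forskolin + 100 uM RO 20-1724.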

[7] = qHTS Assay for Identification of Small Molecule Agonists for Thrombopoietin (TPO) Signaling Pathway (AID 917); conditions: TPO signaling pathway reporter cells, agonist qHTS; series mostly up to 38.5 µM; note: potency is the fitted concentration of half-maximal effect
Summary of the method: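 Stimulation at the TPO EC50 (26 pM final) was used to detect activators. Ba/F3 mouse cells bearing human TPO receptor and a luciferase reporter under the Glycoprotein IIb promoter were exposed to compounds for 24 hrs at 37 C.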

[8] = biological target: Thioredoxin reductase 1, cytoplasmic (Rattus norvegicus) (UniProt O89049); assay: qHTS Assay for Inhibitors of Mammalian Selenoprotein Thioredoxin Reductase 1 (TrxR1) (AID 488773); conditions: purified TrxR1 enzyme activity; Potency: inhibition; series mostly up to 57.1 µM; note: potency is the fitted concentration of half-maximal effect; nearly all actives have a fitted effect of over 40% in size
UniProt O89049, sequence (O89049 whole entry, looked up): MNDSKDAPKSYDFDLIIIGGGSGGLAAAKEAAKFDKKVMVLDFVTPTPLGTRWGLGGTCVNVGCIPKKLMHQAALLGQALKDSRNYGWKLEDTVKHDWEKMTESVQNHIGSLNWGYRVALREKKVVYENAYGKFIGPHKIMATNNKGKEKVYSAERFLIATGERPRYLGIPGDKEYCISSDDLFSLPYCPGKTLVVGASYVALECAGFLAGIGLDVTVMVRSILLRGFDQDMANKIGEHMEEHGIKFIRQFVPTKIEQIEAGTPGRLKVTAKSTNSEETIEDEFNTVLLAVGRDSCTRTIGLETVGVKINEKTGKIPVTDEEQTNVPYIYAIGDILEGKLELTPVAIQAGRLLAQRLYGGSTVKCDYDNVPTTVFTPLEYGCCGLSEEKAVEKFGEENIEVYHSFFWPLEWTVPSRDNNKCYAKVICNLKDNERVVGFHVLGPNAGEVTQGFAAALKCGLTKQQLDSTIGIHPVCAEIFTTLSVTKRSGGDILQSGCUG
Summary of the method: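 Inhibition is scored from the loss of NADPH fluorescence between first and last reads of an 8-min kinetic run. Selenite (400 uM) was the substrate, added after 15 min compound preincubation at room temperature.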

[9] = biological target: D(1A) dopamine receptor (Homo sapiens) (UniProt P21728); assay: HTS Assay for Allosteric Agonists of the Human D1 Dopamine Receptor: Primary Screen for Agonists (AID 488981); conditions: Inducible HEK293 T-REx D1 cells, calcium-flux fluorescence, 180 s kinetic; series mostly up to 41.8 µM; note: potency is the fitted concentration of half-maximal effect; for activation: 0% is about no effect
UniProt P21728, sequence (P21728 whole entry, looked up): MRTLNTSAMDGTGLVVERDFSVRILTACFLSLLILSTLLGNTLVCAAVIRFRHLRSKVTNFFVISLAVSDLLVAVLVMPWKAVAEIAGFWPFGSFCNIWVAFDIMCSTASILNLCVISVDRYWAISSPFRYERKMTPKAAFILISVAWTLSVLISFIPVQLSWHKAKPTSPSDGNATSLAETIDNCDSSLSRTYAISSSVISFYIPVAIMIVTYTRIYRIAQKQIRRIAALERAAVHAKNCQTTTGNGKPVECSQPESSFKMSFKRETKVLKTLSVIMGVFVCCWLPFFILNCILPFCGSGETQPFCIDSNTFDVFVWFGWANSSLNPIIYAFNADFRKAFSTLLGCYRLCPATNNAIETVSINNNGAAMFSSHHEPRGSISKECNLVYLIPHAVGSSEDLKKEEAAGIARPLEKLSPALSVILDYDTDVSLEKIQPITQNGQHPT
Summary of the method: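 Tetracycline-induced HEK293 T-REx cells force-coupled to calcium signalling were incubated overnight at 30 C and dye-loaded at room temperature. Calcium flux over 180 s after compound addition flagged agonists; a further 180 s read after EC20 dopamine flagged potentiators.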

[10] = High Content Imaging Cell-Based qHTS for Inhibitors of the mTORC1 Signaling Pathway in MEF Cells (AID 2667); conditions: series mostly up to 38.3 µM; note: potency is the fitted concentration of half-maximal effect;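 for activity change, negative = inhibition: Tsc2-/- p53-/- MEFs stably re-expressing wild-type Tsc2 exposed 24 h; plate controls were DMSO wells for no effect and rapamycin control wells for full effect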
Summary of the method: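 Fixed-cell imaging of phospho-S6 (Ser235/236, Alexa-488) after 24 hrs of compound treatment at 37 degree Celsius. Signal was normalized to Hoechst, and thresholds from the highest and lowest wells split cells into % active versus % non-active.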

[11] = biological target: M-phase phosphoprotein 8 (Homo sapiens) (UniProt Q99549); assay: qHTS Validation Assay for Inhibitors for MPP8 Chromodomain Interactions with Methylated Histone Tails (AID 488949); conditions: AlphaScreen MPP8 binding to H3K9me3 peptide; series mostly up to 57.1 µM; note: nearly all actives have a fitted effect of over 55% in size; note: potency is the fitted concentration of half-maximal effect; for activity change, negative = inhibition: top concentration of the series differs between compounds; % is set by controls: 0 for no effect and ±100 for the full control effect
UniProt Q99549, sequence (Q99549 whole entry, looked up): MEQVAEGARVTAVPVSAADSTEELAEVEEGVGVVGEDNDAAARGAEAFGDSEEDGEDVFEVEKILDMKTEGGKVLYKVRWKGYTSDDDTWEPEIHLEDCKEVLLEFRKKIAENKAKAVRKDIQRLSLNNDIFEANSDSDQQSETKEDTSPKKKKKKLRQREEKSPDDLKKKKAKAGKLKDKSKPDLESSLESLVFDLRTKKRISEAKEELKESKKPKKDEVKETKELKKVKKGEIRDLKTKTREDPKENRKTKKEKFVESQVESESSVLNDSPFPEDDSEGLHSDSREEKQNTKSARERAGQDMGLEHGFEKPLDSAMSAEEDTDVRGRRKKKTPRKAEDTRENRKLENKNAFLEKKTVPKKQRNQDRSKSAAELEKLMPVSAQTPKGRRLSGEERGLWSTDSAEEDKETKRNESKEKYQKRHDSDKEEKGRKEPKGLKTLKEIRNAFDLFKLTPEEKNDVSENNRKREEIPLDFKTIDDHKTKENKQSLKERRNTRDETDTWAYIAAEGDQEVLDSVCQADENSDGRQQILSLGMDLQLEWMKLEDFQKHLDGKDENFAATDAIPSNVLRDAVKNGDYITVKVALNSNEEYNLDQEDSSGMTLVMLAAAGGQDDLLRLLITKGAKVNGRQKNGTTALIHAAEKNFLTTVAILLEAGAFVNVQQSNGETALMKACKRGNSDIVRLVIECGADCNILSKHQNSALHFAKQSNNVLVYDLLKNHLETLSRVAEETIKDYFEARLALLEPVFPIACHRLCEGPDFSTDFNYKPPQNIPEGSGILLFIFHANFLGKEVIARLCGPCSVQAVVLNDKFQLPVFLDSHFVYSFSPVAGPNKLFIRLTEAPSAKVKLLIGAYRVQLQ
Summary of the method: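 MPP8 (50 nM) was pre-bound to 50 nM biotinylated H3(1-18)K9me3 peptide in PBS pH 7.4 with 0.01% Tween-20. Compounds were then added for 30 min at room temperature, and complex disruption was read by AlphaScreen with streptavidin donor and nickel-chelate acceptor beads.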

[12] = biological target: Peptidyl-prolyl cis-trans isomerase NIMA-interacting 1 (Homo sapiens) (UniProt Q13526); assay: qHTS Validation Assay to Find Inhibitors of Pin1 (AID 504536; active = well fitted inhibition curve with a large enough effect in the polarisation, with a control signal flat, not every such curve was filed as active; inconclusive = small, poorly fitted or top-dose-only effect, or effect the other way; the % refers to the polarisation; note: potency is the fitted concentration of half-maximal effect); conditions: Pin1 fluorescence polarization peptide binding assay; series mostly up to 57.5 µM
UniProt Q13526, sequence (Q13526 whole entry, looked up): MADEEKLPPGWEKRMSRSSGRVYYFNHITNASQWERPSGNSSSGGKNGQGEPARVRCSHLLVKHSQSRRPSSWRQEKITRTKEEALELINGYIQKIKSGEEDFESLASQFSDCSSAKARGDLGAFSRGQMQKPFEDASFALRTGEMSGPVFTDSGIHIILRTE
Summary of the method: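 Fluorescence polarization competition: compounds (titration) displace HiFluor-488-labeled Pin1-1b peptide from Pin1 (0.3 uM final) in pH 7.5 HEPES buffer with DTT, 10 min at room temperature; %Activity normalized to no-enzyme wells, curves fitted.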

[13] = biological target: Atrial natriuretic peptide receptor 2 (Homo sapiens) (UniProt P20594); assay: Natriuretic polypeptide receptor (hNpr2) antagonism - Pilot subtype selectivity assay (AID 1347050; calls by dose curve; note: potency is the fitted concentration of half-maximal effect; for activity change, negative = inhibition: % is set by controls: 0 for no effect and ±100 for the full control effect); conditions: NPR2-expressing cells, cGMP antagonist-mode read-out; series mostly up to 38.3 µM
UniProt P20594, sequence (P20594 whole entry, looked up): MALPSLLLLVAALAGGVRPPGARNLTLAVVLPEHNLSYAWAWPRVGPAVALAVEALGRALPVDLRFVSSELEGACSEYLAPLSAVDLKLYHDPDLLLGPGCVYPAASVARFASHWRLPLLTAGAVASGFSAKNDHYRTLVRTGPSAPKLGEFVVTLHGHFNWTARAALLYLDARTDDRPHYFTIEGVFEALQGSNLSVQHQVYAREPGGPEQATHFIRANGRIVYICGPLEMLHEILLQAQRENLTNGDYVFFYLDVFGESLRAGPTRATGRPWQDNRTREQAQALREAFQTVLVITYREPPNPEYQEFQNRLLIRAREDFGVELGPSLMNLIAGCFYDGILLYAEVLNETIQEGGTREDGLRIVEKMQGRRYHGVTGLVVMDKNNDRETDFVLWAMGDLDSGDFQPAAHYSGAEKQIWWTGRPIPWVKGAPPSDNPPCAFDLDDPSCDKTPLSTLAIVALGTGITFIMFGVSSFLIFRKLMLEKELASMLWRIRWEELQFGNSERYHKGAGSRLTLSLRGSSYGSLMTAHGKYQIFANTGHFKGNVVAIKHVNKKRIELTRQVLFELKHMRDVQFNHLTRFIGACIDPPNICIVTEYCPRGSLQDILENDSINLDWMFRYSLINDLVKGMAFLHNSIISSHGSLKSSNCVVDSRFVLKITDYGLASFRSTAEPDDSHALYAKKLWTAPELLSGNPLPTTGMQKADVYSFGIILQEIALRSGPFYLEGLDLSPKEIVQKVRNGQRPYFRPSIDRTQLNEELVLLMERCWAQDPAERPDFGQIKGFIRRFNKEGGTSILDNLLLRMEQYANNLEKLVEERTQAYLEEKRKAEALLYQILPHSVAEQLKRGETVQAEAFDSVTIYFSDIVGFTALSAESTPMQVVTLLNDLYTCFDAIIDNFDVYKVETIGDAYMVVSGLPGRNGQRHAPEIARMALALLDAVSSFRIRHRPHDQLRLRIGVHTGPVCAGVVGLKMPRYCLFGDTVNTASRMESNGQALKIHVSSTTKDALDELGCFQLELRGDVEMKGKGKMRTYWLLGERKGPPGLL
Summary of the method: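 Read-out: GloSensor luminescence (CCD imager), baseline vs post-stimulation. HEK293 cells expressing hNpr2; compounds pre-incubated 30-50 min at ambient temperature; hNppC 1 nM final, 20 min.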

[14] = Quantitative high throughput screen for delayed death inhibitors of the malarial parasite plastid, 48 hour incubation (AID 488752); conditions: Plasmodium falciparum growth; series mostly up to 28.7 µM; note: % is set by controls: 0 for no effect and ±100 for the full control effect; nearly all actives have a fitted effect of over 65% in size
Summary of the method: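 Luciferase-expressing P. falciparum in RBCs, 2% Hct, 0.1% parasitemia final; RPMI 1640 + 0.5% Albumax; 48 h, 37 C, 5% CO2; luminescence readout, signal drop = growth inhibition.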

Papain (Carica papaya) = Papain (Carica papaya) (UniProt P00784); assay: Primary qHTS assay for inhibitors of the protease papain (AID 1645873); conditions: papain Z-FR-AMC cleavage, AMC fluorescence; series mostly up to 49.8 µM;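 note: papain turnover of Z-FR-AMC read as the AMC fluorescence gain over 10 min; potency is the fitted concentration of half-maximal effect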
UniProt P00784, sequence (P00784 whole entry, looked up): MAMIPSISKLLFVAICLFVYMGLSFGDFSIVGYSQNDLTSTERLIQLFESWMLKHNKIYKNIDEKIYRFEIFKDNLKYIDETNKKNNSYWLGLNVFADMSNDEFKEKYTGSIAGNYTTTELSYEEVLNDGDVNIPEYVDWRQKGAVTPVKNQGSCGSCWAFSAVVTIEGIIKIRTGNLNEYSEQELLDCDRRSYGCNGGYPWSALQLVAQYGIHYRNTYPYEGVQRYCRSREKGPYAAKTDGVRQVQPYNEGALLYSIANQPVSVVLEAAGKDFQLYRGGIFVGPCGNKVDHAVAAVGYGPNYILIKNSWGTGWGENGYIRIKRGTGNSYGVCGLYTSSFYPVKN

[15] = biological target: Tyrosine-protein phosphatase non-receptor type substrate 1 (Homo sapiens) + Leukocyte surface antigen CD47 (Homo sapiens) (UniProt P78324+Q08722); assay: CD47-SIRPalpha protein protein interaction - Alpha assay qHTS validation (AID 1347059); conditions: AlphaScreen CD47-His/biotin-SIRPalpha binding, LOPAC; series mostly up to 38.3 µM;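 note: bead proximity luminescence from CD47 binding SIRPalpha after compound preincubation with SIRPalpha; % is set by controls: 0 for no effect and ±100 for the full control effect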
Summary of the method: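 In PBS (pH 7.4) with 0.05% IGEPAL CA-630, compound is preincubated with biotin-Avi-SIRPalpha ectodomain before His-CD47 ectodomain and affinity beads are added. Light-protected room-temperature incubations; AlphaScreen readout.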
Tags give direction and shape of the fitted curve or compound fluorescence and quenching.

NCCc1c[nH]c2ccc(C(N)=O)cc12
Potency [1]: inactive

N[C@@]1(C(=O)O)CC[C@@H](C(=O)O)C1
Potency [2]: inconclusive: 0.261 µM [falling, partial curve, poor fit]
Potency [3]: inactive
Potency [4]: inactive

O=C(O)c1cc[c]([Hg][Cl])cc1
activity change, negative = inhibition [5]: inconclusive: -60.8% [inhibitor] [at 38 µM]
Potency [6]: inconclusive: 12.6 µM [activator, single point]
Potency [7]: inconclusive: 6.31 µM [inhibitor, partial curve]
Potency [8]: active: 0.299 µM
Potency [9]: inactive

CC(N)Cc1c[nH]c2ccc(OCc3cccs3)cc12 (centres undefined)
Potency [10]: active: 13.1 µM
Potency [11]: inconclusive: 44.7 µM [inhibitor, partial curve]
Potency [9]: inconclusive: 22.4 µM [activator, single point]
Potency [12]: inconclusive: 26.9 µM [falling, partial curve, poor fit]
Potency [13]: inactive

NCC(O)c1cc(O)c(O)cc1F (centres undefined)
Potency [8]: inconclusive: 9.47 µM [inhibitor, partial curve]
Potency [9]: inconclusive: 2.24 µM [activator, full curve]

C[C@]12N[C@H](Cc3ccccc31)c1ccccc12
Potency [6]: inconclusive: 2.51 µM [inhibitor, full curve]
Potency [14]: inactive
Potency [3]: inactive
Potency [13]: inactive
Potency (Papain (Carica papaya)): inconclusive: 22.4 µM [inhibitor, partial curve, poor fit]

O=[N+]([O-])c1cc(O)c(O)c([N+](=O)[O-])c1
Potency [1]: inactive
Potency [10]: inactive
Potency [14]: inactive
Potency [11]: inactive
Potency [3]: inconclusive: 23.1 µM [cytotoxic, partial curve, poor fit]
Potency [15]: inactive
Potency (Papain (Carica papaya)): inconclusive: 25.1 µM [inhibitor, single point]

CN1C2CCC1CC(OC(c1ccccc1)c1ccccc1N)C2 (centres undefined)
Potency [13]: inconclusive: 13.1 µM [inhibitor, single point]

Reference: PubChem BioAssay (NCATS)
